Assay results published in publication PMC12136788.
Positions count from the first letter of the chain named. The list shows a part of the results.

T1: UNK ZnF1-3 (human, UniProt Q9C0B0 31-174)
T1 sequence: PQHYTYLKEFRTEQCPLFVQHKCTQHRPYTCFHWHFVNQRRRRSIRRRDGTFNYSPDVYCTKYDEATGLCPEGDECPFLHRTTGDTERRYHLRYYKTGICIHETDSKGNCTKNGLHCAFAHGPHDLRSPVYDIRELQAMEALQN

B1: chr14:76904568:76904569:+_ENSMUSG00000022010_ENSMUST00000022587|mus_hu|FALSE|FALSE (ssRNA)
RNA: GGGAGUUCUACAGUCCGACGAUCGUUUUCAGUCCCCAGCAAGGAUGACAAGAAAGAAAUUGAAAAAUGUCUCAGUUGGUAAACUCCUAGAUCCAUCGCCACUGGUCUACACCAUUGGGAUUUCAUGCAAUUGCAGCCAAAAACCAACAGAGGAUUGAGCAUCA
B2: chr2:198351390:198351391:-_ENSG00000144381_ENST00000345042|hu_hu|hu_hu_hu_mus_False|68_68 (ssRNA)
RNA: GGGAGUUCUACAGUCCGACGAUCUCAUUCCCACCCUCCACAGAAAGGCUGCUUCUGAACUCUCAUGGUGGUGGCAAGCGCUACAGUCCUGAUGCUCACAGAACAGUAGAGAUGCCUCAGUGAUUUAAGUUGAAAGCAGGACACCAACAGAGGAUUGAGCAUCA
B3: 121250362_121252434_672_CDS_ENSMUSG00000027248_ENSMUST00000028683|mouse|control|control (ssRNA)
RNA: GGGAGUUCUACAGUCCGACGAUCCACUGAGGCAUCUUUAUCACUAAUGAACUUCUUAAAUUCUUCCUCAGUCCUGAGAGGAACUGAAGCUGGUCCUGCUUGUUUCUUCAAGUGGCUGACAAUUCCAUCAGCAGUCCUAGGCCCCAACAGAGGAUUGAGCAUCA
B4: chr22:19452774:19452775:-_ENSG00000070010_ENST00000399523|hu_hu|hu_hu_hu_mus_False|48_68 (ssRNA)
RNA: GGGAGUUCUACAGUCCGACGAUCCUUCUCAUUGUAGUUGAUAGCAAUCACAUCUCCAGUCGUCAGACAGGCAAAGUUUCUCAAUGCGUUUUCUAAUACCGCUUUAGGGUUGGUAAUAUCCAGGAAGUCUGGGCUCUGAGGCUGCAACAGAGGAUUGAGCAUCA
B5: chr1:220276048:220276049:+_ENSG00000067704_ENST00000302637|hu_hu|hu_hu_hu_mus_True|8_68 (ssRNA)
RNA: GGGAGUUCUACAGUCCGACGAUCGCAAAUUGCCUGGUUGGCGGGAAUUGUCCAAGGCUGGGUGGUCCAGACCAAAACGCUAACAGGGGAUGAGGCAUCUGUAAGAGACUCCAACUUCGGAGGAGGUUUUAAGAGAGGGAAUCUCAACAGAGGAUUGAGCAUCA
B6: chr21:34924512:34924513:+_ENSG00000159140_ENST00000381679|hu_hu|FALSE|FALSE (ssRNA)
RNA: GGGAGUUCUACAGUCCGACGAUCAGAUGACAUCAUGGAACGUUCUGCAGCAUAGGACAUCAUCAUAGAACGUCUAGAUGCUAACAUCAGGGGUCUAGGUGCUAACCUAUAUGGCCUGGGUGCUAUUCUAUAGGACCUGGGUGCCAACAGAGGAUUGAGCAUCA
B7: chr12:69047915:69047916:+_ENSG00000127314_ENST00000393436|hu_hu|motif|central (ssRNA)
RNA: GGGAGUUCUACAGUCCGACGAUCCUGUUCUCUCAGGUCUUGUAAAUCGUUAAAUGUGGACUGUGCUGUGAUGGAAUAAACGGAUGCAAAUCCUUGUCCAUUUUUCAUGUAUAAAUCCCUCAUUGCUGUAAAUUGCUCCGUUCCCAACAGAGGAUUGAGCAUCA
B8: chr11:52220846:52220847:+_ENSMUSG00000036275_ENSMUST00000036952|mus_hu|motif|central (ssRNA)
RNA: GGGAGUUCUACAGUCCGACGAUCAAAAGUAGCAUCACUAAUACUUCCAGAAGAAGCAUAAUAAAUCUAAAACAAUAAAAACGGACAGUGUAAAUAUAAGGUAAUGUUUAACUCACAUUUUGGACACCUGAUUAAACUCAGCUCCAACAGAGGAUUGAGCAUCA
B9: chr1:220276048:220276049:+_ENSG00000067704_ENST00000302637|hu_hu|hu_hu_hu_mus_True|68_88 (ssRNA)
RNA: B5 RNA with U48C, U127C, U129C, A131G, A135G
B10: chr3:41266445:41266446:+_ENSG00000168036_ENST00000349496|perfect_dup|FALSE|FALSE (ssRNA)
RNA: GGGAGUUCUACAGUCCGACGAUCCAUGGCAGCUCGGACCCUCUGAGCCCUAGUCAUUGCAUACUGCCCGUCAAUAUCAGCUACUUGCUCUUGCGUGAAGGACUGGGAAAAGCCUUGCUCCCAUUCAUAAAGGACUUGGGAGGUCAACAGAGGAUUGAGCAUCA
B11: chr3:148802587:148802588:-_ENSG00000071794_ENST00000310053|hu_mus|hu_hu_hu_mus_False|28_28 (ssRNA)
RNA: GGGAGUUCUACAGUCCGACGAUCUCCAACAACUUGUCCUCUCAUAGUUCCAAAUAAAACCAAAUCUUGCUCUUCAUCACUCGUUAGGAAGUCAUCUGGAGGAAUAACAUCUUGGAAUUCAAAAUGUGGCAAGAAAGUUGAGUACAACAGAGGAUUGAGCAUCA
B12: chr7:97319096:97319097:+_ENSMUSG00000039361_ENSMUST00000049537|mus_mus|FALSE|FALSE (ssRNA)
RNA: GGGAGUUCUACAGUCCGACGAUCAUCUUUGAAGAGGAGCAUGAAGGCAGCAUUUAUUACCCCAUUUGUAAGUUCAUUACUAUUAACAUUAAAAUCAAGAAGUGCAUCCAUUUGAUUUUGGAUAAUUGGUACAGUUUUUAAGAGCAACAGAGGAUUGAGCAUCA
B13: chr1:235599081:235599082:+_ENSG00000116957_ENST00000366601|hu_hu|FALSE|FALSE (ssRNA)
RNA: GGGAGUUCUACAGUCCGACGAUCCAGGUGGGCUAUCAGAUACAGCUGAUUUUCAUCAAUUAAUUGAUUAGAGGAAAGAUCUAAUAACUUGACUGUCUGGAGAACAUCUGUUGGCCUUUCGGAAAUGAAAAUGUUGUUAGACUCCAACAGAGGAUUGAGCAUCA
B14: chr3:179287964:179287965:+_ENSG00000136518_ENST00000429709|hu_hu|hu_hu_hu_mus_True|1_58 (ssRNA)
RNA: GGGAGUUCUACAGUCCGACGAUCCUUGAGUGGUGAGAUGGCCUCCAUGUUCUCCCUGGGCACGCGGAGGGCAUUGGUAUCUAUGUAGUAGGUGGGCCCGCCCUGCUUGCCUUUGUCACCAUCAAUCUCCAUCAUUGUGCUUCCCAACAGAGGAUUGAGCAUCA
B15: chr12:48538843:48538844:+_ENSG00000152556_ENST00000359794|hu_mus|FALSE|FALSE (ssRNA)
RNA: GGGAGUUCUACAGUCCGACGAUCCUCCUUGAUUUUCCCAGACAUCCAGUUCAUAGCCUUAGCACCCAUCUUAGUGGCAAAAUUCCUGUCAAAGGGAGUUGGGCUUCCACCCUGCUGCAUGUGGCCAAGCACGUUCUUCCUGCUCAACAGAGGAUUGAGCAUCA
B16: chr16:44739181:44739182:-_ENSMUSG00000022668_ENSMUST00000162512|mus_hu|FALSE|FALSE (ssRNA)
RNA: GGGAGUUCUACAGUCCGACGAUCAACAGGUUUUCAUUUUAUGGAUGUGCUCUUGUCAGUUUGUUAAAAUAGGGGAAUCAGCUAGUAGCUGUUCUAAUGAACACCAUAAUUCAAUAACUUACAAACUUUUUUCACCUCAGGCACCAACAGAGGAUUGAGCAUCA
B17: 42271696_42271921_939_3pUTR_ENSG00000087152_ENST00000454077|human|control|control (ssRNA)
RNA: GGGAGUUCUACAGUCCGACGAUCGGAACCUAGGCCGGAGGCAGUCCCUACCAGGCUCAGAUGGGAUUUCUUUUUCUUGGUUUUCCGUGACUCAGAGCUGUUGGUACCUAGACCCCAUCCCUGAUUUUCACUCGUCUUGGAGGACAACAGAGGAUUGAGCAUCA
B18: chr3:96579679:96579680:+_ENSMUSG00000028098_ENSMUST00000029740|mus_mus|motif|central (ssRNA)
RNA: GGGAGUUCUACAGUCCGACGAUCAGGCCGACUUGGUCCCCAAAAGUCAGUGUGAGUUUGGUGACCUCUCUCAUUGGCUCGGUUAUCUUGGUCCAGUGGAUUGCUACUUAGAAAUGGUCUAAAAUCUUGUAAAAACAUUGUGUGCAACAGAGGAUUGAGCAUCA
B19: chr3:95061978:95061979:-_ENSMUSG00000015711_ENSMUST00000015855|mus_mus|FALSE|FALSE (ssRNA)
RNA: GGGAGUUCUACAGUCCGACGAUCUCGUUCCAGGAUGCCACAGAUUGUCAUUCGAAGUGCCUCGUGUGGACAGAAGAUAGCUAAUUGCCGUACUGGCUCAUUUUGAGUGUUGAAAAAGAUAGUCAUGGCAACCAGGGCAUCAUACAACAGAGGAUUGAGCAUCA
B20: 47228842_47230765_1301_CDS_ENSG00000090372_ENST00000263280|human|control|control (ssRNA)
RNA: GGGAGUUCUACAGUCCGACGAUCGUGCGAGCGCAGGGUGAACUUGGGGUUCCACGUCUUCUUAAAAGCAUCUUUGCUGUCAGACAGAUCGCAGCUGAGGUCGUUGUCGUUGGUGACGGUGAGAUCUGCCAAGUCCCCCAGGCUCAACAGAGGAUUGAGCAUCA
B21: chr10:76910771:76910772:+_ENSG00000156671_ENST00000542569|perfect_dup|FALSE|FALSE (ssRNA)
RNA: GGGAGUUCUACAGUCCGACGAUCCAUGUCAGGCACUCGCUCAUGGACUAUAACCAUAAUGAAAGAUGUAAAUCCAAAUACUAUAAAAACAUAUAUACAACUCAGUAUAGUCUUCCAGUAUUCUGGGUCCAAUCUUCGAACAGACAACAGAGGAUUGAGCAUCA
B22: chr1:153634984:153634985:-_ENSG00000143621_ENST00000361891|hu_mus|FALSE|FALSE (ssRNA)
RNA: GGGAGUUCUACAGUCCGACGAUCUUCCUCCCCCUCCUUCUUCUCAGGUGGCUUCUCAUAAGCCUUUUCUGAGGGUGUCACAAUCACUCCAUCCCAGGUAGAUAUUUCAGAAGCAAGAUAGCUGGCAUCCCCCUCCUGGCCAAGCAACAGAGGAUUGAGCAUCA

Each binder was assayed against T1, UNK ZnF1-3 (assay: nsRBNS (natural sequence RNA bind-n-seq); RBNS binding buffer (assumed for nsRBNS): 25 mM Tris pH 7.5, 150 mM KCl, 3 mM MgCl2, 0.01% Triton X-100, 500 ug/ml BSA, 20 U/ml SUPERase-In, 4 C; UNK is unkempt and MSI1 is Musashi-1; names of the RNAs are library labels; protein concentration not given here; high values mean tight binding).
B1 showed a binding signal of 1.4 enrichment R.
B2 showed a binding signal of 1.24 enrichment R.
For B3, the binding signal was 0.835 enrichment R.
Binder B4 has a binding signal of 0.861 enrichment R.
For B5, the binding signal was 1.89 enrichment R.
Binder B6 has a binding signal of 0.804 enrichment R.
For B7, the binding signal was 0.941 enrichment R.
With B8 the binding signal was 2.51 enrichment R.
Work on B9 yielded a binding signal of 1.37 enrichment R.
Binder B10 has a binding signal of 0.798 enrichment R.
B11 showed a binding signal of 1.39 enrichment R.
Work on B12 yielded a binding signal of 2.04 enrichment R.
Work on B13 yielded a binding signal of 1.61 enrichment R.
Binder B14 has a binding signal of 0.674 enrichment R.
In the case of B15, the binding signal is reported as 0.843 enrichment R.
B16 was tested, and the binding signal was 1.31 enrichment R.
B17 was tested, and the binding signal was 0.678 enrichment R.
B18 gave a binding signal of 1.09 enrichment R.
With B19 the binding signal was 1.03 enrichment R.
B20 was tested, and the binding signal was 0.951 enrichment R.
In the case of B21, the binding signal is reported as 1.21 enrichment R.
B22 showed a binding signal of 1.17 enrichment R.
